Values joined by “and” are separate entries in the source; they are usually repeats but may differ in a detail not shown here. Identical values can stand only once. About 1,200 (2.5%) of roughly 48,000 compounds were called active. Roughly 2% stayed inconclusive and do not appear here.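 How the source made its calls: active means activation of at least 60% and not above a set upper limit (about 1 call in 100 departs from these limits); inconclusive means activation of 40% to 60%, or above that upper limit; inactive means activation under 40%.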 This is one part of the list.
Molecular target: Probable G-protein coupled receptor 32 (Homo sapiens) (UniProt O75388)
Experiment: qHTS for Agonists of Human Resolvin D1 Receptor DRV1; further: 0% is about no effect
Details: CHO-K1 GPR32 beta-arrestin PathHunter luminescence, 90 min; at 76.9 µM; hits give high values; zero percent set by DMSO-only wells
Procedure, shortened: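 PathHunter enzyme-fragment complementation, CHO-K1 GPR32 stable line; 2,500 cells/well, overnight attach; cpd 90 min 37 °C 5% CO2; detection reagent 1 h RT; chemiluminescence. DMSO = EC0.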

UniProt O75388, sequence (O75388 whole entry, looked up): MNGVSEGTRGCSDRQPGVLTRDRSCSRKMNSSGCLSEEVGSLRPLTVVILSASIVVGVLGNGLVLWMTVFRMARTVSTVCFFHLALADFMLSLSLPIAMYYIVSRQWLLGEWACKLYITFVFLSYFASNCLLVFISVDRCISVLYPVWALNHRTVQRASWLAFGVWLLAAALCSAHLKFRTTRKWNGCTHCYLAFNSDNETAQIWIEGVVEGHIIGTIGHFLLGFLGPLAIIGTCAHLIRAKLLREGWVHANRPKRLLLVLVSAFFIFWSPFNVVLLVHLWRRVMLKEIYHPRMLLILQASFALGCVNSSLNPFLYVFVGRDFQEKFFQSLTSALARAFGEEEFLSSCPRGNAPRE

activation, active:
O=C(CN1C=NS(=O)(=O)c2ccc(C(F)(F)F)cc21)Nc1cccc(C(F)(F)F)c1 98.7%
O=C(Nc1ccc(Br)cc1)c1cccc(C(=O)Nc2ccc(Br)cc2)c1 71.1%

activation, inactive:
COC(=O)c1c(NC(=O)c2nc(SCc3ccccc3C)ncc2Cl)sc2c1CCCC2 -0.496%
Cc1ccc(C)c(N2C(=O)N(C)c3ccccc3S2(=O)=O)c1 2.79%
COc1ccc(-n2c(C)nc3cc(C(=O)NC4CCCCCC4)ccc32)cc1 -4.22%
CCCN(CCC)CCNC(=O)c1sc2nc3n(c(=O)c2c1C)CCCCC3 -3.39%
Cn1c(=O)n(C)c2cc(N3CCOCC3)c(NC(=O)c3c(F)cccc3F)cc21 -21.2%
COc1ccc(C(=O)NCC(c2ccc(N(C)C)cc2)N2CCc3ccccc32)cc1 (stereo not drawn) -26.8%
Cc1cc(C)c2sc(NC(=O)c3ccc(S(=O)(=O)N4CCOCC4)cc3)nc2c1 -8.62%
CCCN1CCN(c2cc3c(cc2F)c(=O)c(S(=O)(=O)c2ccc(Cl)cc2)cn3C)CC1 3.46%
O=C(NC1CC(=O)N(c2cccc(F)c2)C1)C(c1ccccc1)c1ccccc1 (stereo not drawn) -14.3%
COc1cc(OC)c(NC(=O)Nc2c(C)n(C)n(-c3ccccc3)c2=O)cc1Cl -7.43%
CCc1cc2c(-c3ccccc3)cc(=O)oc2c2c1OCN(Cc1ccc(F)cc1)C2 -23.2%
CCOc1ccc(CNC(=O)C2Cc3ccccc3N2C(=O)CC)cc1 (stereo not drawn) 6.58%
COC(=O)c1ccccc1NC(=O)c1ccc2c(=O)n3c(nc2c1)CCCCC3 -28.4%
CCC1C(=O)OCC1Cc1cncn1C (stereo not drawn) -7.27% and -2.44% and -11.3%
CCC(Oc1ccccc1)C(=O)Nc1ccc(OCc2cc(=O)n3ccccc3n2)cc1 (stereo not drawn) -14.2%
NC(=O)c1ncn([C@@H]2O[C@H](CO)[C@@H](O)[C@H]2O)c1O -30.9% and 0.794%
CCOC(=O)c1cc(NC(=O)c2ccc(Cl)cc2)c(=O)n2c1oc1ccccc12 16.4%
O=S(=O)(c1ccc(Cl)cc1)c1nc(-c2ccccc2)oc1N1CCN(c2ccccc2)CC1 -2.74%
CCn1c(/C(C#N)=C/c2ccccc2Cl)nc2ccccc21 9.92%
CCc1cccc(NC(=O)CSc2nc3ccsc3c(=O)n2CC)c1 28.5%
CCc1nc(SCc2cc(=O)c3cc(C)ccc3[nH]2)n[nH]1 -0.203%

From PubChem BioAssay AID1346428 (National Center for Advancing Translational Sciences (NCATS), 2018)
